# In PubChem BioAssay AID1745845 (National Center for Advancing Translational Sciences (NCATS), 2022):
# Among all 360,000 compounds or so, about 2,600 (0.72%) were called active. The shares of active, inactive and inconclusive entries below differ from those in the screen. Calls follow the shape of the dose curve; as a rule, active = well fitted inhibition curve with a large enough effect; inconclusive = small, poorly fitted or top-dose-only effect; inactive = no such curve, though single readings can be large or run the other way. Potencies beside an inconclusive call are fits to weak or partial responses and may not hold up.
# Experiment: Primary qHTS for Inhibitors of ATXN expression; also: nearly all actives have a fitted effect of over 55% in size
# Settings: HEK-293 ATXN2-luciferase reporter, luminescence, 24 h; activity change, negative = inhibition: at 57 µM (top of the series)
# How it was run: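 ATXN2-luciferase reporter cells (luciferase flanked by upstream and downstream ATXN2 gene portions) were treated 24 h at 37 °C with compounds at up to 57 uM. SteadyGlo luminescence gave expression; GF-AFC fluorescence gave viability.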
# % is scaled to controls: 0 for no effect and ±100 for the full control effect; potency is read from the fitted curve at half-maximal effect; tags tell the direction and shape of the fitted curve.
Structure (SMILES),Potency,"activity change, negative = inhibition"
O=C(NNc1ccc(-c2csnn2)cc1)c1cc(Cl)cc(Cl)c1,"inconclusive: 42.3 µM [inhibitor, partial curve, poor fit]",
Cc1ccc2cccc(NC(=O)COc3ccccc3Cl)c2n1,,inactive: 4.56%
COc1ccc(NC(=O)c2cc(-c3cc(Cl)ccc3OC)n[nH]2)cc1OC,"inconclusive: 0.891 µM [inhibitor, full curve, poor fit]",
COc1cccc(-c2oc3ccc(C)cc3c(=O)c2O)c1,"inconclusive: 39.8 µM [inhibitor, single point]",
CC1(C)CC(NC(=O)c2ccc(Cl)c(S(=O)(=O)N(Cc3ccccc3)c3ccccc3)c2)CC(C)(C)N1,"inconclusive: 25.1 µM [inhibitor, single point]",
CCOc1ccc(C2C(C#N)=C(C)NC3=C2C(=O)c2ccccc23)cc1 (configuration not stated),"inconclusive: 14.1 µM [inhibitor, partial curve]",
COc1ccc(C(=O)/C=C/c2ccccc2)c(OC)c1,"inconclusive: 37.7 µM [inhibitor, single point]",
CCc1ccc(NC(=O)C2CCN(S(=O)(=O)c3cccc(-c4noc(C)n4)c3)CC2)cc1,"inconclusive: 28.2 µM [inhibitor, partial curve, poor fit]",
CCOc1ccc(S(=O)(=O)Nc2cc(Cl)ccc2O)cc1,,inactive: -17.8%
Cc1ccc(C(Sc2ccccc2)C(Cn2cncn2)C(=O)c2ccccc2)cc1 (configuration not stated),"inconclusive: 21.2 µM [inhibitor, partial curve, poor fit]",
O=C(NC(NC(=S)Nc1ccccc1Cl)C(Cl)(Cl)Cl)c1cccc(Cl)c1 (configuration not stated),"inconclusive: 28.2 µM [inhibitor, single point]",
CN1CCN(C(c2ccc(C(F)(F)F)cc2)c2ccc3cccnc3c2O)CC1 (configuration not stated),active: 7.94 µM,
CN1CCN(c2cc(-c3ccccc3)nc3cc(-c4ccc(F)cc4)nn23)CC1,"inconclusive: 15.8 µM [inhibitor, partial curve]",
COC(=O)c1ccc(-n2ccnc2)cc1,,inactive: -17.6%
C/C(=N/NC(=O)c1cccs1)c1ccc(NC(=O)COc2ccc(Cl)cc2Cl)cc1,active: 12.6 µM,
COc1ccc(C(=O)c2c3ccc([N+](=O)[O-])cc3[n+]([O-])n2CCCN)cc1,"inconclusive: 6.31 µM [inhibitor, partial curve]",
Cc1ccc(Cl)cc1N1CCN(S(=O)(=O)c2ccc3c(c2)C(C(C)C)C(=O)N3)CC1 (configuration not stated),"inconclusive: 39.8 µM [inhibitor, single point]",
O=C(CCl)N1N=C(c2cccs2)CC1c1ccco1 (configuration not stated),active: 4.23 µM,
O=S(=O)(c1ccc(-c2csc(=Nc3ccc(F)cc3)n2CCCCCCO)cc1)N1CCCC1,active: 31.6 µM,
O=C(Cc1ccc(F)cc1)N1CCC(CC2CC(c3ccc(Cl)cc3)=NO2)(C(=O)NCC2CCCCC2)CC1 (configuration not stated),"inconclusive: 39.8 µM [inhibitor, partial curve, poor fit]",
CC[C@H](Nc1ncnc2nc[nH]c12)c1nc2cccc(F)c2c(=O)n1-c1ccccc1,"inconclusive: 27.3 µM [inhibitor, single point]",
O=C(Nc1ccc(S(=O)(=O)N2CCCC2)cc1)c1ccc(CN2CCOCC2)cc1,"inconclusive: 14.1 µM [inhibitor, partial curve, poor fit]",
N#CC(c1ccc(Cl)cc1)c1ccc2c(C(F)(F)F)cc(C(F)(F)F)nc2n1 (configuration not stated),active: 0.708 µM,

Structure (SMILES),Potency,"activity change, negative = inhibition"
Cc1cc(C)nc(NC(=O)c2cccc([N+](=O)[O-])c2)c1,"inconclusive: 3.16 µM [inhibitor, single point]",
COc1cc2nc3n(c(=O)c2cc1OC)-c1cc2ccccc2cc1C(=O)NC3CC(C)C (configuration not stated),"inconclusive: 39.8 µM [inhibitor, single point]",
Cc1c(NC(=S)NC(=O)COc2ccccc2)c(=O)n(-c2ccccc2)n1C,,inactive: -5%
COc1cc(C(=O)Oc2c(CN3CCOCC3)cc(Cl)c3cccnc23)cc(OC)c1OC,active: 1.58 µM,
C#CCOc1ccc(Cl)cc1/C=C1/C(=O)ON=C1C,,inactive: -15.6%
O=C(c1ccc(Cl)cc1)C1CCN(C(=O)NC2CCCCC2)CC1,"inconclusive: 39.8 µM [inhibitor, partial curve, poor fit]",
COC(=O)C(Cc1ccc(O)cc1)NC(=O)C(C)Oc1ccccc1 (configuration not stated),"inconclusive: 39.8 µM [inhibitor, single point]",
COc1ccc(-c2[nH]n(-c3ccc([N+](=O)[O-])cc3)c(=O)c2C=NCc2ccncc2)cc1,"inconclusive: 37.7 µM [inhibitor, partial curve, poor fit]",
COc1ccccc1N(CC(=O)N/N=C/c1c(O)ccc2ccccc12)S(C)(=O)=O,active: 8.91 µM,
O=C(Nc1ccccn1)C1CCN(C(=O)Nc2ccccc2)CC1,,inactive: 0.306%
Fc1ccc2[nH]c3c(N4CCN(c5ccccc5)CC4)ncnc3c2c1,"inconclusive: 15.8 µM [inhibitor, partial curve, poor fit]",
CCc1nc(N)c(C#N)c(-c2ccncc2)c1C,,inactive: 2.57%
COc1cccc(CNC(=O)c2cc3c(=O)n(Cc4cccnc4)ccc3nc2C)c1,"inconclusive: 10 µM [inhibitor, partial curve, poor fit]",
Cc1cc(C)c(C(=O)/C=C/c2cccc3ccccc23)c(=O)[nH]1,"inconclusive: 31.6 µM [inhibitor, single point]",
F[B-](F)(F)c1cncc2ccccc12,,inactive: -4.5%
C(=C\c1ccccc1)/CN1CCN(C(c2ccnc3ccccc23)c2nnnn2C2CCCCC2)CC1 (configuration not stated),"inconclusive: 39.8 µM [inhibitor, partial curve, poor fit]",
Nc1ccc(-c2nc3c(Cl)cc(N)cc3[nH]2)cc1,active: 10 µM,
COC(=O)c1ccc(NC(=O)Nc2cccc(F)c2)cc1,,inactive: 3.41%
CC(C)CNC(=S)NC1CC2CCCC(C1)N2Cc1cccs1 (configuration not stated),"inconclusive: 39.8 µM [inhibitor, partial curve, poor fit]",
CN(C)CCCN(C(=O)c1ccc(S(=O)(=O)N(C)C2CCCCC2)cc1)c1nc2ccc(Br)cc2s1,"inconclusive: 28.2 µM [inhibitor, single point]",
COc1cccc(OC2(C)CCN(Cc3ccc(-c4ccccn4)cc3)C2)c1 (configuration not stated),,inactive: -11.4%
CC(C)CCc1noc(CN(C)CCC2CCOCC2)n1,,inactive: 5.32%
CCc1nc(N)nc(N)c1-c1ccc(Cl)c([N+](=O)[O-])c1,"inconclusive: 8.91 µM [inhibitor, full curve, poor fit]",

Structure (SMILES),Potency,"activity change, negative = inhibition"
CC1(c2ccccc2)NC(=O)N(CC(=O)Nc2cccc(/C=C/c3ccccn3)c2)C1=O (configuration not stated),,inactive: 2.33%
Cc1cc(C(=O)CSc2nnc(-c3cccs3)o2)c(C)n1-c1ccccc1,"inconclusive: 20 µM [inhibitor, partial curve]",
CCOC(=O)C1CCCN(c2cc(C)nc3cc(-c4ccc(Cl)cc4)nn23)C1 (configuration not stated),,inactive: 11%
Oc1cccc2cc(-c3ccncc3)cnc12,"inconclusive: 5.01 µM [inhibitor, full curve, poor fit]",
C/C(=N\N=C(N)N)c1ccc(Cl)cc1Cl,"inconclusive: 16.8 µM [inhibitor, partial curve, poor fit]",
CCCC1=C(C(=O)OCC)C(c2ccc(OC)c(CSc3ccccn3)c2)C(C#N)=C(N)O1 (configuration not stated),,inactive: 1.93%
CN(C)CCCN(C(=O)c1ccc(S(=O)(=O)N2CCc3ccccc3C2)cc1)c1nc2ccc(F)cc2s1,"inconclusive: 31.6 µM [inhibitor, single point]",
Cc1ccc(-c2cc3nccc(-c4cc([N+](=O)[O-])ccc4O)n3n2)cc1,"inconclusive: 39.8 µM [inhibitor, single point]",
COc1cc(-c2noc(-c3ccc(NC4CCCC4)c([N+](=O)[O-])c3)n2)cc(OC)c1OC,,inactive: 14%
CCOc1ccc(NCc2nnc(SCC(=O)Nc3nc(-c4ccccc4)cs3)n2-c2ccccc2)cc1,"inconclusive: 39.8 µM [inhibitor, single point]",
COc1ccc(-c2nc(CN3CCCCC3c3nccn3C)c(C)o2)c(C)c1C (configuration not stated),"inconclusive: 28.2 µM [inhibitor, single point]",
COC(=O)c1ccc(CSc2nnc(-c3c[nH]c4ccccc34)n2-c2ccccc2)cc1,,inactive: -17.1%
Cc1c(C(=O)Nc2nc3ccccc3[nH]2)oc2ccccc12,"inconclusive: 39.8 µM [inhibitor, single point]",
Cc1ccc(-c2cc(NC=O)c3ncc(-c4cnn(C)c4)n3c2)cc1,"inconclusive: 14.1 µM [inhibitor, partial curve, poor fit]",
Cc1cc(C(=O)C(C)OC(=O)c2ccc(NC(=O)CC#N)cc2)c(C)n1-c1ccccc1 (configuration not stated),"inconclusive: 39.8 µM [inhibitor, single point]",
O=C(CC(=O)Nc1ccccn1)Nc1ccccn1,,inactive: -4.81%
COc1ccc(C2CC(c3ccc(C(F)(F)F)cc3)=NN2c2ccc(S(N)(=O)=O)cc2)cc1 (configuration not stated),"inconclusive: 31.6 µM [inhibitor, single point]",
CCn1c(CC(=O)Nc2ccc(C)c(Cl)c2)nnc1SCC(=O)Nc1nc(C)cs1,"inconclusive: 22.4 µM [inhibitor, partial curve, poor fit]",
COc1ccc(NC(=O)C2Cc3c(-c4ccccc4Oc4ccccc4)ccnc3O2)cn1 (configuration not stated),"inconclusive: 28.2 µM [inhibitor, single point]",
Cc1cnn(-c2cc(N/N=C/c3ccccc3F)ncn2)c1,"inconclusive: 39.8 µM [inhibitor, single point]",
Cc1cc(F)ccc1NC(=O)c1ccc2nc(Cc3ccccc3)oc2c1,"inconclusive: 2 µM [inhibitor, partial curve, poor fit]",
